Over roughly 33,000 sequences, “E-score (-0.5 to 0.5)” has its median near -0.013; the highest 2% begin near 0.3. Some of the results follow.
Each sequence was assayed against T1, Msn1 (UniProt P22148) (assay: PBM E-score (8-mer binding enrichment) (E-score (-0.5 to 0.5)); higher = stronger / more preferred TF binding; most listed sequences are background and not binding sites). Details: protein concentration: 200 nM; construct: GST-full length.
T1 sequence: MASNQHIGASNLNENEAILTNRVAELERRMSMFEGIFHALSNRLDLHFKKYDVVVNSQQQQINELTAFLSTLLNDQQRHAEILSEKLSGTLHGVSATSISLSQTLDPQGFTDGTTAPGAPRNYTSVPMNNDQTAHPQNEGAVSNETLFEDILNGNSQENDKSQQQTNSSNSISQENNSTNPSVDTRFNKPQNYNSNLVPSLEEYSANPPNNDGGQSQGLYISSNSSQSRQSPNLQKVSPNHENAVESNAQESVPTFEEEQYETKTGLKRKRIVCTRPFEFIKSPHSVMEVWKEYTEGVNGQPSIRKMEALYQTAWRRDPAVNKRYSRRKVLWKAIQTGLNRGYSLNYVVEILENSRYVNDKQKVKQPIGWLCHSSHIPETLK
Outline: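 The E-score, a modified Wilcoxon-Mann-Whitney statistic, was computed by the Universal PBM Analysis Suite for every ungapped eight-base word pooled with its reverse complement. Scans behind it were normalised with masliner after bound GST-tagged yeast transcription factors were detected with fluorescent anti-GST. The proteins, at about 100-200 nM, had been applied to universal all-10-mer Agilent arrays made double-stranded by primer extension.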

Sequence	PBM E-score
ACGTAGCC	-0.252
CCCCTCAA	-0.341
AAGGTGTG	0.00988
GGGCTTAC	-0.234
ACAGGGCT	-0.194
CTACGTCC	0.107
GTACCCCA	-0.138
CCCTATCA	-0.16
ACAATTGT	0.363
ACCTATGA	-0.172
AGTAACCA	-0.104
AACCACTC	-0.123
AAGCATCT	-0.0811
CGAGCGAC	0.0386
AACTAACA	0.184
GTCAGTAA	0.0578
AATATCCG	0.256
ACCGGAAG	0.139
AGAGCTAT	-0.232
GTCTACAC	-0.0538
CCTACTGC	-0.156
CATCCCTA	0.127
CAGGACGA	0.0828
AGGTTCCC	-0.331
CGCTCTAG	-0.253

Sequence	PBM E-score
AAACTGCA	0.00799
CAGTATTA	0.0608
ACGAGAAT	0.122
CGCACTAG	-0.00831
CTATCCCC	-0.228
AATTGACC	0.0411
GGGACGCA	-0.0363
AACATCCC	0.0693
AAGTAGGG	0.114
CAACCTAC	-0.114
AGGGCCGG	-0.0394
AACTGGGC	-0.182
AACTTTTC	0.0925
AACGCGTA	0.0449
AGAACACG	0.169
ACCTTGCC	-0.013
ACGCCAAC	-0.055
GGCCGAGA	0.081
TGCTGGAA	-0.0423
CAACACAG	0.0232
GGCGTTGA	-0.102
GTTACTGA	0.171
CGGTTGAG	-0.0793
ATGTGCGG	-0.0574
ACTATTCC	0.0911

Sequence	PBM E-score
GGTACTGA	-0.118
GAGTCGCC	-0.162
GGCACTAC	-0.284
CGATTTAG	0.138
GCGCTAAA	-0.0257
GTTCGTTA	0.0345
AAGTCGGT	-0.0333
CCCTTGGC	-0.223
GTCTGGGA	-0.0635
AAATAGAA	-0.0849
GGGTAACC	-0.155
AAATATTC	0.124
CGAGTAAA	0.216
CATGCAGA	-0.0066
CTAGGCTA	-0.179
AGCGGCAC	-0.236
AATCGTAT	0.0866
AGGTGTAG	-0.211
GATATTAC	0.135
AGCGGTGC	-0.223
CGCGTTTC	-0.022
TCCCAAGA	0.185
GTAATGCA	-0.119
ACCTACAC	-0.21
GACCGGCA	-0.224

Sequence	PBM E-score
GTGATGAA	-0.127
GTAACGCA	-0.0553
CCAGAGTC	-0.0686
ATGTCTTA	0.423
CCAGCTAA	-0.134
ACACGGGT	0.00665
ATTCAGTA	0.146
CACATGAC	-0.0252
AATAATGT	0.19
CGAACGGA	0.0436
ACAAACAT	0.184
AAAAGCTG	0.0581
ATAGTGAA	0.167
CGGACAAC	0.369
CCCGAGCA	-0.107
GAGTACAA	0.262
GACATGGC	0.276
CATACCCG	-0.173
ACACGCCC	0.0947
GGAATCAA	0.0658
CCAAGTGC	-0.302
GACCCGGA	0.0712
GTACATTA	0.278
AAGGATTA	-0.104
AGGTTGAC	-0.118

Sequence	PBM E-score
AACTTGCG	0.0743
ATCAGACA	0.173
CTAGTTAC	-0.0451
CATCAGGG	0.0197
AGCAACCG	-0.00612
CCGATCCA	-0.0522
AATCGGCC	-0.0942
GGTGATTA	0.00544
AACGGGCT	-0.132
ACCCTCCA	-0.203
AAAGTTTC	-0.0484
CAGGTGAG	-0.27
GGCAATGA	-0.0827
GAGTCGCA	-0.262
CTGACTTC	0.0219
GGCCCCAC	-0.282
CACGCTGG	-0.156
CAAGTACA	0.298
ACTAGCAT	-0.0656
ACATATTC	0.34
CAGACGGA	0.113
AAACCTGT	0.143
AAGGCATG	-0.181
AGGCGTAA	-0.194
CGCATACC	0.15

Sequence	PBM E-score
CCTTCTCC	-0.272
CCAACGTC	-0.195
AACGAAGC	-0.0499
CGACACGA	0.274
CTCAATTA	0.0647
CTAATAAG	-0.0321
ACCTGCAT	0.043
ATCCTCAT	-0.167
AGGCAGTC	-0.112
GGTCCGCA	0.00679
CGTAATAC	-0.0604
CCGCTGGA	0.00741
ACCCCGTG	-0.205
ATTATTCG	0.175
GTAAGGAA	-0.0151
CGAGCGAG	0.2
GTAGCATA	-0.154
TTAAAAAA	0.286
CACACTAC	-0.188
AATTTAAC	0.0583
CCGTATCC	-0.0713
CATGTGCC	0.146
ATCCACGG	0.14
GTCCCGTA	0.153
GTCAAACA	-0.0362

Sequence	PBM E-score
CCCATGGC	-0.293
AATTTGCA	-0.149
GCGTAACA	0.0738
ATAAACAA	0.202
AGTTTGTG	-0.0605
CTCATGAA	-0.00812
CTCCTTCA	-0.3
CAGGGGCA	-0.139
AGGGATAT	-0.113
AATCTTAC	0.0531
AGTCCATA	0.171
CGGCAGCC	-0.118
GATCCGAC	-0.123
ACTCGGCT	-0.102
CATGGTGG	-0.157
GCAGACCC	-0.109
CGTATTCC	-0.00514
AAGCACAT	0.0253
CTTTCCAA	0.00908
AACTCGGA	0.131
AGACGTCA	-0.118
AGTCTTAC	-0.0459

— the supplement of paper PMC3334620
